In article PMC4336329 (PLoS ONE, 2015):
Out of some 310,000 compounds screened, about 14,000 (4.5%) showed an effect of 50% or more. The effect is printed as a negative number. The list shows a part of the results.

molecular target: human ether-à-go-go-related gene (hERG) potassium channel (human, UniProt Q12809); assay: primary screen, population patch clamp on CHO cells stably expressing hERG
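Further: peak tail current of the secondary pulse compared with the same well before compound.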

Chain of human ether-à-go-go-related gene (hERG) potassium channel (Q12809 whole entry, looked up): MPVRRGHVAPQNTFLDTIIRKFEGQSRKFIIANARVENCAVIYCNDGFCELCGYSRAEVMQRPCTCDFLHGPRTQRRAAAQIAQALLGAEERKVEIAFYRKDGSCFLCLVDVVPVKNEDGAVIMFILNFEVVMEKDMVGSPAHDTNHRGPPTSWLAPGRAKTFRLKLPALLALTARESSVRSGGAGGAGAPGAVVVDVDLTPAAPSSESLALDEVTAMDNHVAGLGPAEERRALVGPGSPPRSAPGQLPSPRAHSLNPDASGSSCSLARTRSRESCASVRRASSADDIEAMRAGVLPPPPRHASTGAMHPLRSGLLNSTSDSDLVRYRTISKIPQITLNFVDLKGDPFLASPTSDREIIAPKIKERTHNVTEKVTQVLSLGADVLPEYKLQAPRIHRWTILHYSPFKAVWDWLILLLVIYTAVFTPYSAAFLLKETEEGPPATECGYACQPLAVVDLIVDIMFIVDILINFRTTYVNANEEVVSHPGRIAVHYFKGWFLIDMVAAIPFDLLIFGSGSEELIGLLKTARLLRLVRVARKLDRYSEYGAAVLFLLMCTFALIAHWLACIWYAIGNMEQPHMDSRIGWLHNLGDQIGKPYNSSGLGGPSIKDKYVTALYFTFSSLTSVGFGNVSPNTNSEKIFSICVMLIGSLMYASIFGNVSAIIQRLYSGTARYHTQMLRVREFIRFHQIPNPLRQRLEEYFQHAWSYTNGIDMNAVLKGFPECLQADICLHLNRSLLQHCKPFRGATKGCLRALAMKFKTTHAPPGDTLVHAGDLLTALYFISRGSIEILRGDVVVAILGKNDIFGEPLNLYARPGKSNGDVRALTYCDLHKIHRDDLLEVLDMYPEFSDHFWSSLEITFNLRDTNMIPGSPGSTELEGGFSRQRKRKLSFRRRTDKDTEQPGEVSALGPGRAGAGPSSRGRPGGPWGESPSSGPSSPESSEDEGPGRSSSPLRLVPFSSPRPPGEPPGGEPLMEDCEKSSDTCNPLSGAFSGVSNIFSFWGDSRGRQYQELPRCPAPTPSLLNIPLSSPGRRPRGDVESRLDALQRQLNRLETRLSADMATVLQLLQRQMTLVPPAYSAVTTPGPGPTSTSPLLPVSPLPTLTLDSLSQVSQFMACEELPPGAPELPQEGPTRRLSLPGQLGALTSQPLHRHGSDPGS

| Structure (SMILES) | hERG current change (%, negative = inhibition) at 10uM |
| --- | --- |
| CCCCn1cnc2c(c1=O)c1nc3ccccc3nc1n2Cc1ccc2c(c1)OCO2 | 24.1% |
| CC(=O)Nc1cccc(-c2csc(Nc3ccccn3)n2)c1 | 4.58% |
| CSc1nc2nc3c(cc2c(=O)[nH]1)C(O)Oc1ccc(C)cc1-3 (stereo not drawn) | -1.1% |
| Clc1ccc2[nH]c3c(NCC4CCCO4)ncnc3c2c1 (stereo not drawn) | -16.2% |
| O=C(CSc1cccc[n+]1[O-])c1cc2ccccc2o1 | -4.46% |
| CCCCOc1ccc(Nc2nc(C)cc(C)c2C#N)cc1 | -20.1% |
| CCOC(=O)c1ccc(NC(=S)Nc2ccc3[nH]c(=O)[nH]c3c2)cc1 | 1.23% |
| Cn1cc(C(=O)N2CCN(c3ccccc3)CC2)c(=O)c2cc(S(=O)(=O)N3CCOCC3)ccc21 | 8.44% |
| Cc1nc(S/C(=C/c2ccc(-c3cc(Cl)ccc3C)o2)C(=O)O)n[nH]1 | 8.16% |
| CCSc1nnc([C@H](C)NC(=O)OC(C)(C)C)o1 | -7.7% |
| COc1cc(OC)c(N(C)S(=O)(=O)c2cccc(C(=O)OCC(=O)c3c[nH]c4ccccc34)c2)cc1Cl | 10.5% |
| O=C(c1cccn2c(=O)c3cc(Cl)ccc3nc12)N1CCOCC1 | -52.9% |
| Cc1ccc(C(=O)OCC(=O)Nc2c(Cl)cc(S(N)(=O)=O)cc2Cl)o1 | 11.2% |
| O=C(O)c1ccc2c(=O)n3c(nc2c1)/C(=C/c1ccc(F)cc1)CC3 | 19.7% |
| Cc1ccc(C(=O)OCCOc2cccc(Cl)c2)cc1S(=O)(=O)N1CCOCC1 | -12.2% |
| Cn1c2ccccc2c2c(C(=O)N3CCN(c4ccccn4)CC3)cn(C3CCCC3)c(=O)c21 | -39.2% |
| Cc1cc(NC(=O)CSCC(=O)OC(C)C(=O)N(C)Cc2ccccc2)no1 (stereo not drawn) | 1.1% |
| O=C1c2ccccc2C(=O)N1CCCCN(C(=O)c1ccc(Cl)s1)c1ccc(Cl)cc1 | 8.41% |
| Cc1ccc(Nc2cc(C)nn2-c2nc(C)cc(=O)[nH]2)cc1 | 3% |
| O=C(Nc1ccccc1O)c1cc(S(=O)(=O)N2CCOCC2)ccc1Cl | -5.14% |
| Cc1ccc(-n2nnnc2SCC(=O)Nc2ccc(N3CCN(C)CC3)cc2)c(C)c1 | -21% |

| Structure (SMILES) | hERG current change (%, negative = inhibition) at 10uM |
| --- | --- |
| CC(C)[C@H](NC(=O)N1c2ccccc2NC(=O)[C@@H]1C(C)C)C(=O)N[C@@H](Cc1c[nH]c2ccccc12)C(=O)O | 3.11% |
| COc1cccc(OC)c1OCc1cc(C2C3CCCC=C3C(C#N)=C(N)C2(C#N)C#N)c(C)cc1C (stereo not drawn) | 1.6% |
| CCC(C)CCN1C(N(C)C)=NC[C@@H]1CC(C)C (stereo partly drawn) | -11% |
| Cc1ccc(C)c(C(=O)C(C)Sc2nc3nn(-c4ccccc4)c(=O)c-3c3n2CCCCC3)c1 (stereo not drawn) | 4.97% |
| CC(=O)c1ccc(N2C(=NC(=O)C3CCCO3)SC3CS(=O)(=O)CC32)cc1 (stereo not drawn) | -39.7% |
| Cc1ccc(NC(=O)c2ccc(Cl)c(S(=O)(=O)N3CCCCCC3)c2)nc1 | -57.9% |
| CC(C)COC(=O)c1ccccc1N1C(=O)C2C3CCC(C3)C2C1=O (stereo not drawn) | 9.64% |
| Oc1ccc(C[C@H]2CNC(=S)N2CCc2cc(C(F)(F)F)cc(C(F)(F)F)c2)cc1 | -8.02% |
| COc1ccc(C(=O)NCCc2ccccc2)cc1OC | 7.71% |
| COC(=O)c1cc(NCc2ccccc2F)ccc1N1CCOCC1 | -19.4% |
| Cc1ccc(S(=O)(=O)N2CCCC2C(=O)n2nc(C)cc2C)cc1 (stereo not drawn) | 1.87% |
| COc1cccc(-c2ccc(NC(=O)C3CCCN(Cc4ccco4)C3)cc2)c1 (stereo not drawn) | 6.02% |
| COc1ccc(NC(=O)c2ccccc2F)cc1Cl | 7.22% |
| CSCCC(NS(=O)(=O)c1ccccc1F)C(=O)N1CCCCCCC1 (stereo not drawn) | -8.16% |
| CC(C)c1ccc(S(=O)(=O)N2CCN(C(=O)C3CCN(C(=O)c4ccc(F)cc4)CC3)CC2)cc1 | -53.7% |
| CCOC(=O)c1c(O)c2cccc3c2n(c1=O)CC3 | 8.82% |
| CO.COc1ccc(C(=O)Nc2ccc(/C(C)=N/NC(=O)c3ccccc3O)cc2)cc1OC | 6.18% |
| O=C(Nc1ccc(S(=O)(=O)Nc2nccs2)cc1)c1ccc(F)c(S(=O)(=O)N2CCOCC2)c1 | -33.1% |
| Cc1csc(NC(=S)NC(=O)c2ccccc2)n1 | 11% |
| Cc1nc(NC(=O)COC(=O)/C=C/c2ccco2)c(Cl)cc1Cl | 8.52% |
| N/C(=N\c1nc2ccccc2o1)NC(=O)c1cccc(Cl)c1 | 8.97% |
